Screen size: about 390,000 compounds; about 2,200 (0.56%) were called active. The shares of active, inactive and inconclusive entries below differ from those in the screen. The call rests on the fitted dose curve; in most records, active means well fitted inhibition curve with a large enough effect; inconclusive means small, poorly fitted or top-dose-only effect; inactive means no such curve, though single readings can be large or run the other way. Potencies of inconclusive entries are doubtful fits and often do not repeat.
What follows are compounds tested against Chromobox protein homolog 1 (Homo sapiens) (UniProt P83916) (assay: HTS for Inhibitors of HP1-beta Chromodomain Interactions with Methylated Histone Tails). Conditions: AlphaScreen HP1-beta / biotin-H3K9me3 peptide binding; series mostly up to 114 µM; activity change, negative = inhibition: at the top concentration.
Sequence of UniProt P83916 (P83916 whole entry, looked up): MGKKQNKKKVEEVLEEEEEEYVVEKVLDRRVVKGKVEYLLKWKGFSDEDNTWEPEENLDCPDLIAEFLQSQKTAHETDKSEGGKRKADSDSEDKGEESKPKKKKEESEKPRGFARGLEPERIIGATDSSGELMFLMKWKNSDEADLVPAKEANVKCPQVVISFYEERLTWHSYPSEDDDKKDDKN
Summary of the method: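 Compound inhibition of the preformed complex between 50 nM HP1-beta and 50 nM biotinylated H3K9me3 peptide was read by AlphaScreen. Buffer was PBS pH 7.4 with 0.01% Tween-20. Incubations ran 30 min at room temperature, with 10 ug/mL donor/acceptor beads.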
Further: nearly all actives have a fitted effect of over 70% in size.
Potency means the concentration at half of the fitted maximal effect; tags describe the fitted curve by direction and shape.

Row | Compound | Potency | activity change, negative = inhibition
1 | Fc1ccc(-n2cc(-c3ccccc3)c3c(NN4CCOCC4)ncnc32)cc1 | inconclusive: 79.4 µM [inhibitor, single point] | 
2 | CN(C)c1ccc(-c2cc(C3C4C=CCCC4(C)C(=O)N3Cc3ccccc3)ccc2F)cc1 (stereo not given) | inconclusive: 12.6 µM [inhibitor, single point] | 
3 | COc1ccc(Br)cc1CN1CCN(c2ncccn2)CC1 | inconclusive: 15.8 µM [inhibitor, full curve] | 
4 | Cc1ccc(C(C)C)cc1OCCN1CCCC1 | inconclusive: 70.8 µM [inhibitor, single point] | 
5 | CC1CN(CCCCOc2ccc(C(C)C)cc2)CC(C)O1 (stereo not given) | inconclusive: 17.8 µM [inhibitor, full curve, poor fit] | 
6 | CCOC(=O)C1CCCCN1Cc1cc(OC)ccc1OC (stereo not given) | inconclusive: 50.1 µM [inhibitor, partial curve] | 
7 | COc1cc(/C=C/c2ccc3cccc(O)c3n2)cc(Cl)c1OC |  | inactive: 25.7%
8 | c1ccc(CN2CCN(C3=Nc4cccc5cccc3c45)CC2)cc1 | inconclusive: 44.7 µM [inhibitor, partial curve] | 
9 | CCN(Cc1ccccc1)S(=O)(=O)c1ccc(C(=O)N(CCCN(C)C)c2nc3cc(C)cc(C)c3s2)cc1 | inconclusive: 14.1 µM [inhibitor, partial curve] | 
10 | CCC(CC)NC(=O)COC(=O)CCC(=O)c1ccc(Cl)cc1 |  | inactive: 53.5%
11 | CC(C)OC(=O)CNc1n[nH]c(=S)[nH]c1=O |  | inactive: 5.58%
12 | Cc1ccc(-n2nc3c(c2NC(=O)C(C)(C)C)CSC3)c(C)c1 | inconclusive: 89.1 µM [inhibitor, single point] | 
13 | O=C(NC(=S)NC12CC3CC(CC(C3)C1)C2)c1ccc(F)cc1 | inconclusive: 44.7 µM [inhibitor, partial curve, poor fit] | 
14 | Oc1ccc(N=Cc2sc3ccccc3c2Cl)cc1 | inconclusive: 56.2 µM [inhibitor, single point] | 
15 | CCOC(=O)C1=C(O)C(=O)C(C(=O)OCC)C1 (stereo not given) | inconclusive: 10 µM [inhibitor, partial curve, poor fit] | 
16 | COc1ccc(CN(CC(O)COc2cccc3[nH]cc(C)c23)C(C)(C)C)cc1 (stereo not given) | inconclusive: 25.1 µM [inhibitor, partial curve, poor fit] | 
17 | CCN(CC)c1ccc(N)cc1S(=O)(=O)Nc1ccc(OC)cc1 | inconclusive: 44.7 µM [inhibitor, partial curve] | 
18 | CCc1ccccc1OCCCN1CCCC1 |  | inactive: -14.7%

Row | Compound | Potency | activity change, negative = inhibition
19 | COC(=O)c1ccccc1NC(=S)NC(=O)c1ccc2ccccc2c1 | inconclusive: 39.8 µM [inhibitor, single point] | 
20 | CC1=CC2=NC(=O)CC(C)(C(=O)N(CC(=O)NC3CCCC3)c3ccccc3C)N2C=C1 (stereo not given) |  | inactive: -0.843%
21 | COc1cc(OC)c(NC(=O)c2cc(C)nc3c2c(C)nn3-c2ccc(C)cc2)cc1Cl |  | inactive: 14.5%
22 | COc1cc(C(=O)NC(=S)Nc2ccccc2[N+](=O)[O-])cc(OC)c1OC | inconclusive: 35.5 µM [inhibitor, single point] | 
23 | CCN(Cc1nc(-c2ccc(OC)cc2)oc1C)S(=O)(=O)c1ccc(C)cc1 | inconclusive: 39.8 µM [inhibitor, partial curve] | 
24 | O=C(CNCc1ccccc1Cl)Nc1cc(S(=O)(=O)N2CCOCC2)ccc1Cl | inconclusive: 10 µM [inhibitor, full curve] | 
25 | CC(CS(=O)(=O)c1ccc2c(c1)NC(=O)CS2)C(=O)N1CCN(c2cccc(Cl)c2)CC1 (stereo not given) | inconclusive: 50.1 µM [inhibitor, partial curve] | 
26 | CCOc1cc(C=O)cc(N=Nc2cccc([N+](=O)[O-])c2)c1O | inconclusive: 25.1 µM [inhibitor, full curve] | 
27 | Fc1ccc(CN2CCSCC2)cc1F | inconclusive: 50.1 µM [inhibitor, partial curve, poor fit] | 
28 | CCc1ccc(CN(C)CC(O)COc2cccc3ccccc23)cc1 (stereo not given) | inconclusive: 56.2 µM [inhibitor, partial curve, poor fit] | 
29 | COc1ccc(C2c3sc(=O)[nH]c3SC3C4CCC(C4)C23)cc1OC (stereo not given) | inconclusive: 70.8 µM [inhibitor, single point] | 
30 | Cc1cc(=O)n2nc(N(C)CC(=O)NCc3cccc(Br)c3)sc2n1 |  | inactive: 47.8%
31 | COC(=O)C1=C(C(=O)OC)[C@@H]2N(C)c3ccc(OC)cc3[C@@]23C[C@@H](C(=O)OC)N(C(=O)CC(C)C)C3=N1 | inconclusive: 35.5 µM [inhibitor, partial curve] | 
32 | COc1cc(CN2CCN(c3ccccc3F)CC2)cc(OC)c1O | inconclusive: 50.1 µM [inhibitor, partial curve] | 
33 | COc1ccccc1NC(=O)Cn1c(=O)c(N(C)C)c(N)n(C)c1=O |  | inactive: 19.6%
34 | COc1ccccc1N(C)S(=O)(=O)c1ccc(C(=O)N2CCCC(C(F)(F)F)C2)cc1 (stereo not given) |  | inactive: 16.3%
35 | NS(=O)(=O)c1ccc(NC(=S)N2CCC(Cc3ccccc3)CC2)cc1 | inconclusive: 28.2 µM [inhibitor, partial curve] | 

From PubChem BioAssay AID540317 (National Center for Advancing Translational Sciences (NCATS), 2011)
